The labels stand for the following.
B1: 83080778_83080898_180_3pUTR_ENSG00000179104_ENST00000321196|human|control|control (ssRNA)
RNA: GGGAGUUCUACAGUCCGACGAUCUGGGAGGGACAAGGCGAACCGCCUCCCCUCGCCGCCUCCCGGGCGCACUGCUCCGGUGUCGCUCGGGCGGACUCCGGCCGCCAAGGCAGCUGCUGCACAUUCAAUGUUUAUUAGCUCCCUCAACAGAGGAUUGAGCAUCA
B2: chr1:39494447:39494448:+_ENSG00000168653_ENST00000372967|hu_mus|hu_hu_hu_mus_False|8_18 (ssRNA)
RNA: GGGAGUUCUACAGUCCGACGAUCGCACCGAGCGGCGUUCUUAUAGGGCUGUUCUGCGCUUAGGAACAUAAAGUGCCGGUCCAGGCUGAUGCCCAGCUUUUUCUGUAUGUCAAGGAAAGGCAUGGCCGAUGCUCGUGCUUGUCACAACAGAGGAUUGAGCAUCA
B3: chr10:72184726:72184727:+_ENSG00000148730_ENST00000373218|hu_hu|motif|central (ssRNA)
RNA: GGGAGUUCUACAGUCCGACGAUCUCAUGUUAAACUACUCCCAAAUUCUUAACCCACAGAAACUGACAGAUAAUGUUUACGGUUUUAACAUACUAAAUUUAGGGUAAUUUUUUACACAGCAAUAGAUAACUAAUACAGGUGGAACAACAGAGGAUUGAGCAUCA
B4: chr15:11913776:11913777:-_ENSMUSG00000022205_ENSMUST00000022816|mus_mus|FALSE|FALSE (ssRNA)
RNA: GGGAGUUCUACAGUCCGACGAUCGUACCACAGUUAAGAUUGUAAUGAUCUGACUUUAUUUUACACACUAGGUAGGGGGCACAAAGCAAUCCUCUUUAAUAAACUUGACAAUUAGCUUCACUUAGAACAUUUUAAUAAUGCACACAACAGAGGAUUGAGCAUCA
B5: chr16:17043922:17043923:+_ENSMUSG00000063358_ENSMUST00000069107|mus_mus|motif|central (ssRNA)
RNA: GGGAGUUCUACAGUCCGACGAUCACGGCCUGCUGCCAGAACUCUCUGGACUGAAGGAAUUCCGUGAAAGUAUAAAAGCUGCGGCGGCCAGAAACUGCCCCUCUGAAAGGCUCAAAGGAGUCAAGAGUGGGUAAGCUGAGACGGCAACAGAGGAUUGAGCAUCA
B6: chr12:48362563:48362564:+_ENSG00000134291_ENST00000256686|hu_hu|hu_hu_hu_mus_False|48_68 (ssRNA)
RNA: GGGAGUUCUACAGUCCGACGAUCUCCGUCAAGCCCUUCGAUAGACCCUUGCGGGGGAAACUGUAAUAAUUCUAACUGGGGAAGGAAAAAAAAAGCCAAAAACUUUCCAAAAAGCGGGGGUGGGGUGAGGCGGGAGGGGGAGGUCAACAGAGGAUUGAGCAUCA
B7: chr16:45382771:45382772:-_ENSMUSG00000022661_ENSMUST00000163230|mus_mus|mus_mus_mus_hu_True|8_18 (ssRNA)
RNA: GGGAGUUCUACAGUCCGACGAUCCUGGGUCAUGUUAUAAGACAAAUGGACAGGGAGGGCAUGCUUCUCAAAAAAUGUGAGCUAUUGUCUAAGACUAACAAUAUUUAUCUAGCUAUAUAAAAAUAAGUUAAAUGGACGUUAAGACAACAGAGGAUUGAGCAUCA
B8: chr14:78183846:78183847:+_ENSG00000119705_ENST00000557342|hu_hu|hu_hu_hu_mus_False|8_78 (ssRNA)
RNA: GGGAGUUCUACAGUCCGACGAUCUCUCAGAAAUCUUUCUUCAUCAGAUGUUUGAGCUGUUUGCGGAGCCUUUGCUCUUUGAGCUUGAACGUGGAUCUAUGGGAGGGAAAGCACUGUCAGAAAAGGUUGUAGUGCAUUUAAAGACAACAGAGGAUUGAGCAUCA
B9: 50811376_50811496_1883_3pUTR_ENSG00000008196_ENST00000393655|human|control|control (ssRNA)
RNA: GGGAGUUCUACAGUCCGACGAUCGCAUUGACACCAACGUUUCUCCGAUUUUCUUCCAAUAAGUUAGCGUUUUUCUCAUGUUUAGUCUUAUGUUUAUUUUCCAAAGGGAAGGGGAAAUCAUGGUUUUCUUUUAUUAUCAGUAUUCAACAGAGGAUUGAGCAUCA
B10: chr7:36537692:36537693:-_ENSMUSG00000043671_ENSMUST00000051377|mus_hu|FALSE|FALSE (ssRNA)
RNA: GGGAGUUCUACAGUCCGACGAUCCAAUUUAUUUUCCAACUUCACAUUUUCUUCUUGGGCUGGAAAGUCUUCAGAAACUUCUGUGGCUCUUAUUUCUCUUCUUUGCCGGAUGGACAUCAUGAUGUCAGACUUACAUGCAUUGUUCAACAGAGGAUUGAGCAUCA
B11: chr2:202488911:202488912:-_ENSG00000155755_ENST00000286196|hu_mus|hu_hu_hu_mus_False|58_98 (ssRNA)
RNA: GGGAGUUCUACAGUCCGACGAUCAUUGAAACAUUUUCAUAAUAUUGCAGUAGCAUUUCAGCAUUAUGUAACAAAAGAUCUAUUACAAAUACAUGUAUCUUAUAAAAAUACACUUAAAAACACGAGUGGGGAGCGCAGGCGCCACAACAGAGGAUUGAGCAUCA
B12: 89251860_89270157_1664_CDS_ENSG00000065243_ENST00000370521|human|control|control (ssRNA)
RNA: GGGAGUUCUACAGUCCGACGAUCUAAAAAAUCUUCUAACCUCAGAAAUUUUACAGCACACAGAGACCGCCAAUCACGCCAAUAAACUGAAAUUUCCAGUUCACGUGACCUGUCCAGUUCCAGUGUAAACUUCUGGUCCCAUGACAACAGAGGAUUGAGCAUCA
B13: chr2:48026839:48026840:+_ENSG00000116062_ENST00000540021|hu_hu|hu_hu_hu_mus_False|58_108 (ssRNA)
RNA: GGGAGUUCUACAGUCCGACGAUCAUAGUGUGCCACUAGCGUCCUAAAUCUGGAACAGUGGCGGUCAUCCGAAAACUGACCUAUGAAAAACUUGCCCAGUGAAGUGUCCACAAAGCAAACACCAUACACACGAGUGUGACCAGACAACAGAGGAUUGAGCAUCA
B14: 114308989_114309865_2673_3pUTR_ENSMUSG00000021143_ENSMUST00000084891|mouse|control|control (ssRNA)
RNA: GGGAGUUCUACAGUCCGACGAUCAGAAGGUGGCUUUGGAGUGUCCAAAGAUGCAGAUGGGGAAGUGCUUCACGUGAGAAGACCACUGGGCAGCCAGCUGGAAGAACUUGACAUCGCUGCAUUCCACGCCGUCGAUGAGGACCCCAACAGAGGAUUGAGCAUCA

Some of the results follow.

This experiment has as its target T1, UNK ZnF1-3 (human, UniProt Q9C0B0 31-174).
T1 sequence: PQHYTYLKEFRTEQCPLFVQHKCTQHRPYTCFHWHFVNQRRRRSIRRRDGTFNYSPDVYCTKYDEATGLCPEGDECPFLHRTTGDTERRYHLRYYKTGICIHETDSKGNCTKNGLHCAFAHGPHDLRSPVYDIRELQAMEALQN
The experiment in a line: nsRBNS (natural sequence RNA bind-n-seq); RBNS binding buffer (assumed for nsRBNS): 25 mM Tris pH 7.5, 150 mM KCl, 3 mM MgCl2, 0.01% Triton X-100, 500 ug/ml BSA, 20 U/ml SUPERase-In, 4 C; UNK is unkempt and MSI1 is Musashi-1; names of the RNAs are library labels; protein concentration not given here; high values mean tight binding.
As to B1, the binding signal was 0.656 enrichment R.

Regarding B2, the binding signal was 0.801 enrichment R.

In the case of B3, the binding signal stood at 0.665 enrichment R.

With B4, the binding signal amounted to 1.38 enrichment R.

Molecule B5 had a binding signal of 1.16 enrichment R.

In turn, B6 returned a binding signal of 2.81 enrichment R.

B7 registered a binding signal of 2.36 enrichment R.

In turn, B8 came in with a binding signal of 1.69 enrichment R.

For the molecule B9, the binding signal is 0.547 enrichment R.

Molecule B10 had a binding signal of 0.431 enrichment R.

The molecule B11 displayed a binding signal of 0.935 enrichment R.

Turning to B12, the binding signal was determined as 0.869 enrichment R.

For B13, the binding signal was determined as 0.971 enrichment R.

Take B14: the binding signal stood at 1.46 enrichment R.

For the origin of these results see paper PMC12136788.
